In PubChem BioAssay (NCI):
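Compound exposure: 48 hours, 5 concentrations, 96-well plates. Here, GI50 denotes the concentration required for 50% inhibition of growth. The concentration for full growth arrest is given as TGI.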

Tested on: NCI-H322M lung
Test: growth of human tumour cells (NCI), 48 h

**Q.** With Cc1ccc(-c2nc(NCCOCCOCCN)nc(N3CCN(c4ccccn4)CC3)n2)cc1 as the molecule, how does the GI50 read?
**A.** Its GI50 is 15.7 µM.

**Q.** What about the TGI of the same molecule?
**A.** Its TGI is 30.9 µM.

**Q.** Fc1ccccc1CN1COc2c(cc(Cl)c3cccnc23)C1 was tested. Which TGI did it give?
**A.** The TGI was 13.3 µM.

**Q.** Which TGI does the source give for COc1ccc(/C=C/C(=N\NC(=O)c2ccccc2)c2sc(Nc3ccc([N+](=O)[O-])cc3)nc2C)cc1OC here?
**A.** Its TGI is greater than 100 µM.

**Q.** With OCCc1ccsc1-c1sc(-c2cc(CCO)c(-c3sc(-c4cc(CCO)c(-c5sccc5CCO)s4)cc3CCO)s2)cc1CCO as the molecule, how does the TGI read?
**A.** Its TGI is 2.81 µM.

**Q.** With O=C1/C(=C/c2ccc(Cl)cc2)CCC1CNc1ccc(Cl)cc1 (configuration not stated) as the molecule, how does the TGI read?
**A.** The TGI was greater than 95 µM.

**Q.** Clc1cc(N/N=C(\c2ccccc2)c2ccccn2)ncn1 was tested. Which TGI did it give?
**A.** Its TGI is 2.03 µM.

**Q.** How did the TGI turn out when CCOC(=O)C(O)(CC1=NC(C(=O)OC)(C(=O)OC)C(c2cccc(C=O)c2)O1)C(=O)OCC (configuration not stated) was run?
**A.** The TGI was greater than 100 µM.

**Q.** What does the source list for Clc1ccc(C=Nc2ccc(-c3nc4ccccc4[nH]3)cc2)cc1?
**A.** GI50: > 100 µM; TGI: > 100 µM

**Q.** For CN(CCN)[C@H](CSSC[C@@H](c1ccccc1O)N(C)CCN)c1ccccc1O, which TGI is on record?
**A.** The TGI was 27.8 µM.

**Q.** For CC(C)c1cc(=O)[nH]c2cc(N)ccc12, which TGI is on record?
**A.** Its TGI is greater than 100 µM.

**Q.** How did the TGI turn out when CN(C(=O)Cc1ccccc1)n1cn[n+](CC(=O)OC(C)(C)C)c1 was run?
**A.** Its TGI is greater than 10 µM.

**Q.** Which results are given for CC(=O)ON(OCc1ccc2ccccc2c1)C(C)=O?
**A.** GI50: > 100 µM; TGI: > 100 µM

**Q.** For Cc1ccc(S(=O)(=O)N/N=C2\C=CC3(CC2)C(=O)N(I)c2ccccc23)cc1 (configuration not stated), which TGI is on record?
**A.** Its TGI is greater than 100 µM.

**Q.** How did the TGI turn out when Clc1ccc(-c2cn3c(nc4ccccc43)c(-c3ccccc3)n2)cc1 was run?
**A.** The TGI was greater than 80.4 µM.

**Q.** With O=C1Cc2cc3ccccc3nc2-c2ccccc2N1 as the molecule, how does the TGI read?
**A.** Its TGI is 84.4 µM.

**Q.** CCSC[C@@H]1C[C@](O)(c2ccccc2)[C@@H](c2ccccc2)O1 was tested. Which GI50 did it give?
**A.** The GI50 was greater than 100 µM.

**Q.** And the TGI?
**A.** Its TGI is greater than 100 µM.

**Q.** COC1OC2COC(=O)c3cc(O)c(O)c(O)c3-c3c(cc(O)c(O)c3O)C(=O)OC2C(O)C1O (configuration not stated) was tested. Which TGI did it give?
**A.** Its TGI is greater than 100 µM.

**Q.** CCCOC(=O)c1cc(O)c(O)c(O)c1 was tested. Which TGI did it give?
**A.** The TGI was greater than 100 µM.

**Q.** With CCOc1ccc(C2=NN(CC)C(=O)C(C3C(=O)N(c4ccccc4)N=C3C)C2)cc1 (configuration not stated) as the molecule, how does the TGI read?
**A.** Its TGI is greater than 100 µM.

**Q.** What does the source list for O=C1C(Cl)=C(Nc2ccc(S(=O)(=O)c3ccc(NC4=C(Cl)C(=O)c5ccccc5C4=O)cc3)cc2)C(=O)c2ccccc21?
**A.** GI50: 4.27 µM; TGI: 14.8 µM

**Q.** How did the TGI turn out when CSc1cc(Cl)c(C)cc1S(=O)(=O)NC(=O)NNc1ccc(C)cc1 was run?
**A.** Its TGI is greater than 100 µM.

**Q.** With O=C1c2cc3c(cc2NC(c2ccccc2F)C1O)OCO3 (configuration not stated) as the molecule, how does the TGI read?
**A.** Its TGI is greater than 100 µM.

**Q.** For O=c1ccc(N=Nc2ccccc2)ccc1O, which TGI is on record?
**A.** The TGI was 30 µM.

**Q.** For CN(C)C(=O)C(F)(F)C(c1ccccc1Br)C1C(=O)N(C)C(=O)N(C)C1=O (configuration not stated), which TGI is on record?
**A.** Its TGI is greater than 100 µM.

**Q.** With Cc1sc(/N=C/C2=C(O)CC(C)(C)CC2=O)nc1-c1ccccc1 as the molecule, how does the TGI read?
**A.** The TGI was greater than 100 µM.

**Q.** CCN(CC)c1ccc(/C=N/NC(=O)Cc2ccc(Nc3ccnc(C(F)(F)F)c3)cc2)c(O)c1 was tested. Which GI50 did it give?
**A.** The GI50 was 0.429 µM.

**Q.** And the TGI?
**A.** Its TGI is greater than 100 µM.

**Q.** With Cc1cccc2c(=O)c3c(O)cc(O)cc3n(C)c12 as the molecule, how does the TGI read?
**A.** Its TGI is greater than 100 µM.

**Q.** Which TGI does the source give for CC(=O)N[C@@H](Cc1ccc(O)cn1)C(=O)NCc1ccc(Cl)cc1 here?
**A.** Its TGI is greater than 100 µM.

**Q.** For Nc1nc(N)c2nc(CN(C=O)c3ccc(C(=O)O)cc3)cnc2n1, which TGI is on record?
**A.** Its TGI is greater than 100 µM.

**Q.** With CC(C)(Oc1ccc(-c2cccc3ccccc23)cc1)C(=O)O as the molecule, how does the TGI read?
**A.** The TGI was greater than 100 µM.

**Q.** For COc1cc(/C=C(\C)[N+](=O)[O-])cc(OC)c1, which TGI is on record?
**A.** The TGI was 31.6 µM.

**Q.** How did the TGI turn out when Cc1c(C#N)c2nnn(-c3cccc(Cl)c3)c(=O)n2c1-c1ccccc1 was run?
**A.** The TGI was greater than 100 µM.

**Q.** CCOC(=O)N1c2ccccc2C(C)=CC(C)C1C (configuration not stated) was tested. Which TGI did it give?
**A.** The TGI was 93.1 µM.

**Q.** C=C1C(=O)OC2CC(C)C(/C=C/C(C)=O)=CCC12 (configuration not stated) was tested. Which TGI did it give?
**A.** The TGI was greater than 100 µM.

**Q.** Which TGI does the source give for COc1cccc(/C=C2\N=C(c3ccccc3)OC2=O)c1 here?
**A.** The TGI was greater than 100 µM.

**Q.** What does the source list for COC(=O)c1c(C)nc(C)c2c1C(=O)C(Br)=C(NCc1ccccc1)C2=O?
**A.** GI50: 3.45 µM; TGI: 10.9 µM

**Q.** For COC(=O)CN1CCN(c2cccc3c2CCCC3)CC1, which TGI is on record?
**A.** Its TGI is greater than 100 µM.

**Q.** With Nc1ncn([C@H]2CC(O)[C@@H](CO)S2)c(=O)n1 (some centres not stated) as the molecule, how does the GI50 read?
**A.** Its GI50 is 26.4 µM.

**Q.** And the TGI?
**A.** The TGI was greater than 100 µM.

**Q.** CC(=O)c1cc2c(N)c(C(=O)Nc3cccc4ccccc34)sc2nc1C was tested. Which GI50 did it give?
**A.** The GI50 was 3.72 µM.

**Q.** What about the TGI of the same molecule?
**A.** The TGI was greater than 50 µM.

**Q.** Which GI50 does the source give for Cc1cc(NC(=O)NCc2ccc(N3C(N)=NC(N)=NC3(C)C)cc2)ccc1S(=O)(=O)F here?
**A.** The GI50 was 6.58 µM.

**Q.** What about the TGI of the same molecule?
**A.** The TGI was greater than 100 µM.

**Q.** How did the TGI turn out when NC(CCC(=O)c1ccccn1)C(=O)O (configuration not stated) was run?
**A.** The TGI was greater than 100 µM.

**Q.** For CN(C)S(=O)(=O)c1ccc2[nH]c(O)c(C3=Nc4ccccc4C3=O)c2c1, which TGI is on record?
**A.** Its TGI is greater than 100 µM.

**Q.** How did the GI50 turn out when COc1cc(N=Nc2cc(Cc3ccc(N(C)C)cc3)c(N)cc2N(C)C)c2ncccc2c1 was run?
**A.** Its GI50 is 0.483 µM.

**Q.** What about the TGI of the same molecule?
**A.** The TGI was 2.95 µM.

**Q.** For CC(C)(C)N/N=C(/Cc1nc2c3c(ccc2[nH]c1=O)C(=O)c1ccccc1C3=O)C(=O)NC1=C(Cl)C(=O)c2ccccc2C1=O, which TGI is on record?
**A.** The TGI was greater than 100 µM.

**Q.** What does the source list for S=c1ssnc1-c1cc2ccccc2o1?
**A.** GI50: 25.1 µM; TGI: 60 µM
